# Results as given in paper PMC4336329 (PLoS ONE, 2015).
# Hit rate of the full screen: of about 310,000 compounds, about 14,000 (4.5%) showed an effect of 50% or more. The effect is printed as a negative number. This is one part of the list.
# Target: human ether-à-go-go-related gene (hERG) potassium channel (human, UniProt Q12809)
# Experiment: primary screen, population patch clamp on CHO cells stably expressing hERG
# 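Further: peak tail current of the secondary pulse compared with the same well before compound.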
# human ether-à-go-go-related gene (hERG) potassium channel, sequence (Q12809 whole entry, looked up): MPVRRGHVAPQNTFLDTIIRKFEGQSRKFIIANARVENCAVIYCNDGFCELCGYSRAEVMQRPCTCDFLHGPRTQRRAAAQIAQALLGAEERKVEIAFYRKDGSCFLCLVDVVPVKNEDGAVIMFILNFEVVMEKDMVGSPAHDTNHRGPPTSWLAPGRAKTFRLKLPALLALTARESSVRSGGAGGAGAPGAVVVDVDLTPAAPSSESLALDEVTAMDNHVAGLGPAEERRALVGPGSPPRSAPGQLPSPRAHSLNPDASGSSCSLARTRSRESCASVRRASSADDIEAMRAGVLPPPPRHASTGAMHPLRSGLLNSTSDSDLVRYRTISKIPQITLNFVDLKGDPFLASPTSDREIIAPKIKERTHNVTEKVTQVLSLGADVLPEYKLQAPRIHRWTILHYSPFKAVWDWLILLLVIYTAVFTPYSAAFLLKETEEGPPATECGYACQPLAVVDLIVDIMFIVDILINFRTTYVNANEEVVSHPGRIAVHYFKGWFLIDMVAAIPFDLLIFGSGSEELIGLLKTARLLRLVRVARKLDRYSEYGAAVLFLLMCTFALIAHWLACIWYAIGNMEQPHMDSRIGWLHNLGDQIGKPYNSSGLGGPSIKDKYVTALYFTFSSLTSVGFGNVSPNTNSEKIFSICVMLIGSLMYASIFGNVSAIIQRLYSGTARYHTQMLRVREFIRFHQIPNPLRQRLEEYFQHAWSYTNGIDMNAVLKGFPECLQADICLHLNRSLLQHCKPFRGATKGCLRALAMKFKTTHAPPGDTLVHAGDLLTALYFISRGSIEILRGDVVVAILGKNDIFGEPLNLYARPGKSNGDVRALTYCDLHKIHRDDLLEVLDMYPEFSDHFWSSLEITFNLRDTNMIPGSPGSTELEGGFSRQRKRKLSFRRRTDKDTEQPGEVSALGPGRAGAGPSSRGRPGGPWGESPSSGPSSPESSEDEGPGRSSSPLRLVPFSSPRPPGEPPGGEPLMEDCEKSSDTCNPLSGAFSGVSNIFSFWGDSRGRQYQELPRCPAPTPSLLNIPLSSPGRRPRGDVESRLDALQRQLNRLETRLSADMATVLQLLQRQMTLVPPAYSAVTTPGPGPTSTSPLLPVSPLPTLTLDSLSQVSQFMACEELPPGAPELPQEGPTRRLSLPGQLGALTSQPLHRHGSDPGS
row,SMILES,"hERG current change (%, negative = inhibition) at 10uM [%]"
1,Cc1ccc2c(CN3CCC(C(N)=O)CC3)cc(=O)oc2c1C,14.4
2,CCOC(=O)CSc1nnc(CNC(=O)c2cccc(C)c2)n1C,2.16
3,COc1cccc(N2CCN(C(=S)Nc3ccc(F)cc3)CC2)c1,16.1
4,S=C(Nc1ccccc1Cl)N(Cc1cccnc1)Cc1ccco1,-4.94
5,CCOC(=O)C1(CCOc2ccccc2)CCN(Cc2ccccc2O)CC1,-30.8
6,CCSc1nnc(SCC(=O)N2CCN(C(=O)c3ccco3)CC2)s1,-33.4
7,CC#CC[N+](C)(C)CC(=O)c1ccccc1.[Br-],5.71
8,COc1cccc(NC(=O)NC(=O)c2c(C)cc(Cl)nc2Cl)c1,-6.63
9,CCCCN(C(=O)c1ccc(Br)o1)C1CCS(=O)(=O)C1 (stereo not drawn),-11.9
10,COc1ccccc1NCCC(=O)O,13.2
11,CCN1CCCC1CNC(=O)c1cc(N)ccc1OC.O.O=C(O)C(=O)O (stereo not drawn),13.5
12,CC(C)Cn1c(SCC(=O)c2ccc(Cl)s2)nnc1-c1ccco1,-76.7
13,CNC(=S)N1N=C(c2ccc(C)cc2)CC1c1ccc(OC)cc1 (stereo not drawn),-0.896
14,O=C(N/C(=C\c1cccc([N+](=O)[O-])c1)C(=O)N1CCCCC1)c1cccs1,7.93
15,c1cc(-c2noc(CCC3CCCC3)n2)ccn1,-1.83
16,Cc1ncn2cc(-c3ccc(Cl)cc3Cl)[nH]c(=O)c12,2.09
17,NC(=O)c1ccc(C(=O)N/N=C(/Cc2ccccc2)c2ccccc2)cc1,18.6
18,COc1cccc(NC(=O)c2cc([N+](=O)[O-])ccc2N2CCN(C)CC2)c1,-57.7
19,O=C(OCC(=O)N1CCOCC1)c1c(Cl)ccc(Cl)c1Cl,-15.9
20,CC(=O)c1cccc(NC(=O)N2CCN(S(C)(=O)=O)CC2)c1,5.44
21,Cc1cnc(NC(=O)c2ccncc2)s1,10.2
22,CC(C)OP(=O)(OC(C)C)C(NC(=O)c1ccccc1Br)C(N)=O (stereo not drawn),3.63
23,Nc1c2c(nc3sc4c(c13)CCCC4)-c1ccccc1CC2,11.7

row,SMILES,"hERG current change (%, negative = inhibition) at 10uM [%]"
1,Cc1ccccc1Nc1ncnc(N)n1,12
2,Cc1cc(C)nc(NS(=O)(=O)c2ccc(-n3cccc3)cc2)n1,5.66
3,COc1ccccc1OC(C)C(=O)Nc1nc(-c2ccc(S(=O)(=O)N3CCOCC3)cc2)cs1 (stereo not drawn),18.2
4,CCOC(=O)C1CCCN(C(=O)c2sc3nc4n(c(=O)c3c2C)CCC4)C1 (stereo not drawn),2.39
5,CC(C)N1CCc2c(sc(NC(=O)c3ccc([N+](=O)[O-])o3)c2C(N)=O)C1.Cl,-4.92
6,Cc1ccc(C(C#N)c2ccc3c(C(F)(F)F)cc(C(F)(F)F)nc3n2)cc1 (stereo not drawn),11.1
7,CNC(=O)C1(C)C=CCN1C(=O)c1ccccc1 (stereo not drawn),16.3
8,Cc1cc2oc(C(=O)N3CCN(CCc4ccccn4)CC3)c(C)c2cc1C,-21.2
9,NC(=O)C1CCN(C(=O)COc2ccc(S(=O)(=O)NCc3ccccc3)cc2Cl)CC1,5.03
10,Cn1c(N)c(C(=O)COC(=O)c2ccco2)c(=O)n(C)c1=O,5.09
11,Cc1ccc(/C([O-])=C(/C(=S)NCc2ccco2)[n+]2ccccc2)cc1,-15.5
12,COC(=O)c1cc2c(C)nn(-c3ccccc3)c2s1,2.91
13,O=C(C1CC1)N(CCc1ccccc1)Cc1nc2ccccc2c(=O)[nH]1,-19.1
14,CCOc1ccccc1-n1nnnc1SCC(=O)OC,19.1
15,COc1ccccc1C(=O)Nc1cccc(NC(C)=O)c1,10.9
16,Cc1ccc2c(c1)C1CN(C)CCC1N2C(=O)Nc1cccc(Cl)c1 (stereo not drawn),-51.1
17,Cl.OC1(c2ccccc2)CNCCc2ccccc21 (stereo not drawn),15.8
18,c1ccc2c(c1)nc(NC1CCCCC1)c1nncn12,-35.2
19,COc1ccc(-c2cc(C)no2)cc1S(=O)(=O)N1CC(=O)Nc2ccccc21,14.4
20,COc1ccccc1OCCOc1ccc(C(=O)c2ccccc2)cc1,10.8
21,C[C@@H](O)CC(=O)O,-5.45
22,O=C(c1nc2ncccn2n1)N1CCN(c2ccc(F)cc2)CC1,-23.4
23,COc1ccc(Cn2nnnc2CN(Cc2cc3ccc(C)cc3[nH]c2=O)C2CCCC2)cc1,-24.6

row,SMILES,"hERG current change (%, negative = inhibition) at 10uM [%]"
1,COc1ccc(/C=C/C(=O)N(Cc2ccccc2)c2ccccn2)cc1OC,-76.6
2,COc1ccc(CN(CC(=O)NCC2CCCO2)C(=O)CCC(=O)Nc2cc(C)on2)cc1 (stereo not drawn),0.303
3,COc1ccccc1CNC(=O)CNC(=O)c1ccc(Br)o1,5.22
4,CCC(=O)c1ccc(OCC(O)CN2CCN(C(c3ccccc3)c3ccccc3)CC2)cc1 (stereo not drawn),-67.2
5,COc1ccc(CNC(=O)C(=O)NCC2OCCN2C(=O)c2ccc(OC)cc2)cc1 (stereo not drawn),1.53
6,Cc1cc(C)c2ccc(=S)[nH]c2n1,17
7,CS(=O)(=O)N(CC(=O)NCCSCc1ccccc1)c1ccccc1,5.17
8,COc1ccc(NC(=O)NC(c2ccccc2)c2ccccc2)c(OC)c1,16.2
9,Cc1ccc(N2C(=O)c3sc4nnc(C)c(=O)n4c3C2=O)cc1,-9.37
10,COc1ccc(N2CCN(C(=O)C3CCN(C(=O)c4ccc([N+](=O)[O-])cc4)CC3)CC2)cc1,-69
11,COc1ccc(S(=O)(=O)Oc2ccc(C(=S)N3CCOCC3)cc2OC)cc1,-0.365
12,Cc1ccc(C)c(N2CCN(C(=O)C3CCCN(S(=O)(=O)c4cnc[nH]4)C3)CC2)c1 (stereo not drawn),-2.62
13,O=C(/C(C=Nc1cccc(C(F)(F)F)c1)=C(/O)c1ccco1)C(F)(F)F,-29.8
14,Cc1ccc(S(=O)(=O)N2CCN(C(=O)c3ccccc3)CC2)cc1,-31
15,Cc1cccc(NC(=O)C2CCCN2C(=O)OCC(C)C)c1 (stereo not drawn),-2.25
16,O=C(CSc1nnnn1-c1ccccc1)Nc1ccc(Cl)cn1,2.66
17,CC(C)n1nnnc1SCC(=O)NCc1cccs1,12.6
18,Cc1cccc(C)c1Nc1nnc(SCC(=O)NCc2ccco2)s1,8.86
19,C=CCN(C(=O)Cn1nc(C)n2c(cc3cc(C)ccc32)c1=O)c1ccccc1,-36.5
20,COc1ccc(CC(=O)N2CCc3cc(OC)c(OC)cc3C2C)c(OC)c1 (stereo not drawn),-6.22
21,CCCNC(=O)C1CN(S(=O)(=O)c2ccc(C)cc2)c2ccccc2O1 (stereo not drawn),-5.47
22,CCO/C(C)=N/n1c2nc3ccccc3nc2c2c(=O)n(Cc3ccccc3Cl)c(C)nc21,-28.7
23,CCN(C(=O)c1cc2c(C)nc3ccccc3c2o1)c1cc(Cl)ccc1OC,-9.19

row,SMILES,"hERG current change (%, negative = inhibition) at 10uM [%]"
1,COC(=O)COc1nc(C)c2c(c1C#N)CC(C)(C)OC2,3.5
2,CC(C)c1ccc(S(=O)(=O)c2nnn3c2nc(NCC2CCCO2)c2ccccc23)cc1 (stereo not drawn),-4.47
3,COc1ccc(NC(=S)N(CCCN2CCCC2)Cc2ccco2)cc1,-39.4
4,O=[n+]1c2c(n([O-])c3cc(Br)ccc31)CCCC2,-27.2
5,CCN1CCN(C(CNS(=O)(=O)c2ccc(Br)cc2)c2cccnc2)CC1 (stereo not drawn),-65.8
6,CCCCC(=O)N/N=C(\C)CC(=O)Nc1cc(Cl)ccc1OC,-1.21
7,CCCCNC(=O)CCn1c(=O)c2ccccc2n(Cc2ccccc2C)c1=O,0.168
8,O=C(NC1CCN(S(=O)(=O)c2cccc(F)c2)CC1)c1cccc(F)c1,18.4
9,O=[N+]([O-])c1ccc(S(=O)(=O)NCC(c2ccco2)N2CCc3ccccc3C2)cc1 (stereo not drawn),-20.2
10,COC(=O)c1ccc(CSc2nnc(N)s2)o1,4.89
11,COc1ccc(S(=O)(=O)N2CCCC(C(=O)NCCCn3ccnc3)C2)cc1OC (stereo not drawn),7.83
12,Cl.N[C@@H](CCl)C(=O)O,2.44
13,COc1ccc(C(CNCC(=O)Nc2ccccc2F)N(C)C)cc1.O=C(O)C(=O)O (stereo not drawn),-35.1
14,CC1OC(Nc2cccc3ccccc23)C(O)C(O)C1O (stereo not drawn),0.146
15,Cc1cccc(SCc2noc(C(=O)NCC3CCCO3)c2C(=O)O)c1 (stereo not drawn),8.89
16,O=C(CN(C(=O)CNC(=O)c1ccco1)c1ccc2c(c1)OCO2)NC1CCCCC1,-4.4
17,O=C1CN(C(=O)CSc2nc3ccccc3c(=O)n2CCCN2CCOCC2)c2ccccc2N1,-19.7
18,O=C(Nc1nnc(-c2ccc3c(c2)CCCC3)o1)C1CCCCC1,4.3
19,O=S(=O)(c1ccc(Br)s1)N1CCN(c2ccccn2)CC1,5.03
20,Cc1ccc(NS(=O)(=O)c2ccc3c(c2)n(C)c(=O)n3C)cc1C,14.2
21,COc1ccc(CCNC(=O)C(C)Sc2ccccc2)cc1OC (stereo not drawn),5.6
